Assay results as given in PubChem BioAssay AID1745853 (National Center for Advancing Translational Sciences (NCATS), 2022).
The other results are listed elsewhere or left out. These are further read-outs of the screen, such as a control signal, another cell line or another target. No call is given for them.

Experiments:
Assay in all cases: Primary Screen for Target Class Profiling of Small Molecule Inhibitors of Methyltransferases
[1] = molecular target: Glycine N-methyltransferase (Homo sapiens) (UniProt Q14749); settings: purified enzyme, MTase-Glo SAH luminescence; measured here: GNMT inhibition; at 40 µM; stronger effect = lower value
In short: (§1)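 Each enzyme was assayed with SAM and its substrate. SAH formation detected by MTase-Glo luminescence; single-point 40 uM screen[…].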

[2] = molecular target: Guanidinoacetate N-methyltransferase (Homo sapiens) (UniProt Q14353); settings: purified enzyme, MTase-Glo SAH luminescence; measured here: GAMT inhibition; at 40 µM; stronger effect = lower value
In short: as §1

[3] = molecular target: Histamine N-methyltransferase (Homo sapiens) (UniProt P50135); settings: purified enzyme, MTase-Glo SAH luminescence; measured here: HNMT inhibition; at 40 µM; stronger effect = lower value
In short: as §1

[4] = molecular target: Nicotinamide N-methyltransferase (Homo sapiens) (UniProt P40261); settings: purified enzyme, MTase-Glo SAH luminescence; measured here: NNMT inhibition; at 40 µM; stronger effect = lower value
In short: as §1

[5] = molecular target: Phenylethanolamine N-methyltransferase (Homo sapiens) (UniProt P11086); settings: purified enzyme, MTase-Glo SAH luminescence; measured here: PNMT inhibition; at 40 µM; stronger effect = lower value
In short: as §1
% is set by controls: 0 for no effect and ±100 for the full control effect.

| Structure (SMILES) | activity change, negative = inhibition [1] [%] | activity change, negative = inhibition [2] [%] | activity change, negative = inhibition [3] [%] | activity change, negative = inhibition [4] [%] | activity change, negative = inhibition [5] [%] |
| --- | --- | --- | --- | --- | --- |
| CCOCCCN1C(=O)c2cc3sc(CC)cc3n2CC1(C)C(=O)NC1CCCCC1 (configuration not stated) | -0.488 | 5.18 | 3.95 | 6.07 | -2.64 |
| CCCCc1c(-c2ccc(OC)cc2)[nH]c2nccnc12 | 1.07 | -5.85 | -0.648 | -20.2 | -11.9 |
| Cc1ccc(CN2C(=O)c3ccccc3CC2(C)C(=O)NC2CCC(C)CC2)cc1 (configuration not stated) | 1.94 | 0.958 | 6.4 | -5.21 | -0.019 |
| Cc1ccc(Cn2c(=O)c3ccccc3n3c(=O)n(CC(=O)Nc4cccc(Cl)c4)nc23)cc1 | 6.84 | 0.505 | 11.8 | 9.33 | 8.58 |
| CC1CCC(NC(=O)Cn2c(=O)oc3cc(S(=O)(=O)NC4CCCC4)ccc32)CC1 (configuration not stated) | -0.858 | 4.75 | 1.01 | 7.79 | -10.2 |
| CNC(=O)c1cc(C)nc2onc(C3CCCN(C(=O)Cc4ccc(OC)cc4)C3)c12 (configuration not stated) | -7.74 | -3.94 | 1.02 | -12.7 | -4.47 |
| COc1cc(OC)cc(N2C(=O)c3cc4ccccc4n3CC2(C)C(=O)NC2CCCC2)c1 (configuration not stated) | -7.15 | 3.98 | -7.62 | -3.65 | -1.35 |
| COc1cc2ncc(-c3ccccc3)nc2cc1OC | -21.9 | 0.364 | 4.06 | -17.8 | 1.28 |
| COc1ccc(N2CCN(C(=O)c3ccc4c(=O)nc5c(-c6cccc(C)c6)n[nH]n5c4c3)CC2)cc1 | -22.2 | -2.15 | -0.531 | -9.79 | -5.03 |
| Cc1ccccc1CNC(=O)C1(C)Cc2ccccc2C(=O)N1Cc1ccccc1 (configuration not stated) | 1.71 | 0 | 0.657 | -5.14 | -0.185 |
| CCOC(=O)c1cc2n(n1)CC(C)(C(=O)NC1CCCCCC1)N(c1ccc(OCC)cc1)C2=O (configuration not stated) | 1.63 | 0 | 0.833 | 5.12 | 1.38 |
| O=C(NCc1ccon1)C1CCCN(C2CCN(c3nc4ccccc4o3)CC2)C1 (configuration not stated) | -2.51 | -1.12 | -2.06 | 0.478 | -0.01 |
| CCc1ccc(NC(=O)N2CCn3cccc3C2Cc2ccccc2)cc1 (configuration not stated) | -8.64 | 2.89 | -7.61 | -6.91 | -6.08 |
| Cc1ccc(NC(=O)CCNc2c(C)nc3cnccn23)c(F)c1 | -3.87 | -3.5 | -1.04 | -2.76 | -4.1 |
| O=C(CCc1nnc2n(Cc3ccc(F)cc3)c(=O)c3ccccc3n12)NCc1ccccc1 | -5.75 | 4 | 2.69 | 9.48 | -3.05 |
| CC(C)NC(=O)Cn1nc2n(C)c(=O)c3ccc(C(=O)NC4CCCCC4)cc3n2c1=O | 5.21 | 0 | 6.12 | 5.16 | 8.51 |
| CC(C)C(=O)N1CCC(CCOc2ccc(F)cc2)C1 (configuration not stated) | 0.918 | 2.43 | -0.012 | -0.903 | -1.91 |
| CC(=O)NCC(=O)N1Cc2ccccc2CC2(CCN(CC3CCCCC3)C2)C1 (configuration not stated) | -2.86 | -6.25 | -1.79 | -12 | -3.74 |
| CCN(CC)Cc1cc(C2CC(=O)Nc3n[nH]c(C(=O)O)c32)ccc1OC (configuration not stated) | 0.27 | -0.019 | 1.46 | -7.61 | 5.48 |
| C=CCCC(=O)N1CCOc2c(O)cc(-c3nc4ccccc4s3)cc2C1 | -21.1 | -1.7 | -18.7 | -23.5 | -15.2 |

| Structure (SMILES) | activity change, negative = inhibition [1] [%] | activity change, negative = inhibition [2] [%] | activity change, negative = inhibition [3] [%] | activity change, negative = inhibition [4] [%] | activity change, negative = inhibition [5] [%] |
| --- | --- | --- | --- | --- | --- |
| CC(CN1C(=O)c2ccc(-c3ccco3)n2CC1(C)C(=O)NC1CCCC1)c1ccccc1 (configuration not stated) | -2 | -0.013 | 5.7 | 3.28 | -1.81 |
| CCOC(=O)Cc1ccc(NC(=O)N2Cc3c(sc4c3CCCC4)-n3cccc3C2c2cccc(F)c2)cc1 (configuration not stated) | -4.24 | 0 | -4.31 | -4.09 | 1.1 |
| COC(=O)c1sccc1S(=O)(=O)Nc1ccc(Nc2ccccc2)cc1OC | -0.887 | -4.43 | 9.01 | -15.6 | 1.48 |
| Cc1ccc(-c2n[nH]n3c2nc(=O)c2ccc(C(=O)NC4CC4)cc23)cc1 | -0.51 | 0.855 | 8.02 | 6.3 | 3.87 |
| COc1ccccc1C(=O)N1CCC(Cc2nncn2-c2ccccc2)CC1 | -4.78 | -5.51 | -1.28 | -11.7 | -4.7 |
| COc1cccc(CN2C(=O)c3nc4ccccc4n3CC2(C)C(=O)NC2CCCCCC2)c1 (configuration not stated) | -7.72 | 1.79 | -3.69 | -10.3 | -3.78 |
| CCOCCCNC(=O)c1cc2n(n1)CC(C)(C(=O)NC1CCCC1)N(CC)C2=O (configuration not stated) | 7.39 | 0.248 | -5.54 | 11.2 | 6.84 |
| CC1(C(=O)NCc2ccccc2)Cn2c(nc3ccccc32)C(=O)N1C1CC1 (configuration not stated) | 3.83 | 0 | 0.673 | 9.37 | 0.978 |
| Cc1cccc(-c2[nH]ncc2-c2ccnc3ccccc23)n1 | -0.885 | 3.97 | -28.5 | -18.2 | 6.26 |
| CC1(C(=O)NCc2ccccc2)Cn2c(cc3ccccc32)C(=O)N1Cc1cccs1 (configuration not stated) | 0.514 | 5.16 | 2.86 | -3.49 | -5.09 |
| CC(C)=CC[C@H]1O[C@]2(O)C([C@H]3CCC4[C@@]5(C)CC[C@H](O[C@@H]6O[C@H](CO)[C@H](O)[C@H](O[C@@H]7O[C@H](CO)[C@@H](O)[C@H](O)[C@H]7O)[C@H]6O[C@@H]6O[C@@H](C)[C@H](O)[C@@H](O)[C@H]6O)C(C)(C)C5CC[C@@]4(C)[C@]3(C)[C@H]2O)[C@@]1(C)O (some centres not stated) | -2.07 | -2.97 | 3.92 | -10.8 | 1.31 |
| CCCCN1C(=O)c2c(NC(C)=O)c3cc(F)ccc3n2CC1(C)C(=O)NCCC(C)C (configuration not stated) | 8.27 | 1.41 | 9.93 | 11.2 | 3.86 |
| COc1c2ccoc2nc2c(OC)c(O[C@@H]3O[C@@H](C)[C@H](O)[C@@H](O[C@@H]4O[C@H](CO)[C@@H](O)[C@H](O)[C@H]4O)[C@H]3OC(C)=O)ccc12 | 0.722 | -0.026 | 6.41 | -10.1 | -2.63 |
| Cc1ccc(NC(=O)CSc2nnc3n(CCCOC(C)C)c(=O)c4ccccc4n23)c(C)c1 | -3.18 | 3.49 | -6.78 | -9.75 | -0.914 |
| CN1CCN(C(=O)c2cc(C3CC3)[nH]n2)CC12CCNC(=O)CC2 (configuration not stated) | -2.89 | -5.79 | -3.49 | -6.03 | 0.088 |
| COc1cc2c(NC(C)=O)c3n(c2cc1OC)CC(C)(C(=O)NC1CCCCCC1)N(CCC(C)C)C3=O (configuration not stated) | 1.1 | 4.13 | 3.37 | 10.7 | 1.12 |
| Cn1c(=O)c2ccc(C(=O)NC3CCCCC3)cc2n2c(SCC(=O)c3ccccc3)nnc12 | 2.26 | 0.269 | 3.73 | 10.4 | 9.41 |
| CCC(C)NC(=O)c1ccc2c(=O)n(C)c3n[nH]c(=O)n3c2c1 (configuration not stated) | -0.849 | 0 | 3.6 | 11.5 | -2.75 |
| CCN1c2cc(C(=O)Nc3cccc(F)c3)ccc2C(=O)N2CCCC21 (configuration not stated) | -6.02 | -2.59 | -3.43 | -3.54 | 1.58 |
| Cc1ccc(NS(=O)(=O)c2ccc3[nH]c4c(c3c2)CCCC4)c(C)c1 | 5.42 | 6.28 | 4.05 | -3.36 | 5.33 |

| Structure (SMILES) | activity change, negative = inhibition [1] [%] | activity change, negative = inhibition [2] [%] | activity change, negative = inhibition [3] [%] | activity change, negative = inhibition [4] [%] | activity change, negative = inhibition [5] [%] |
| --- | --- | --- | --- | --- | --- |
| O=C(CCc1nnc2n(Cc3ccccc3)c(=O)c3ccccc3n12)Nc1ccc(F)cc1 | -9.05 | -18.7 | 7.5 | -5.03 | 0.752 |
| O=C(O)CCC(=O)N1CCCC1C(=O)O (configuration not stated) | -6.51 | 1.9 | -0.832 | -3.87 | 5.16 |
| COC(=O)c1ncn2c1C(=O)N(Cc1ccc(C)o1)C(C)(C(=O)NCc1ccccc1)C2 (configuration not stated) | -0.59 | 3.33 | 13.8 | 4.92 | 8.12 |
| CC1(C)CC[C@]2(C(=O)O)CC[C@]3(C)C(=CCC4[C@@]5(C)CC[C@H](O)C(C)(C)C5CC[C@]43C)C2C1 (some centres not stated) | -0.355 |  | 0.319 |  |  |
| COc1ccc(NC(=O)CSc2nnc3n(CCC(C)C)c(=O)c4ccccc4n23)cc1OC | 1.13 | 0 | 7.31 | 0.04 | 3.6 |
| Cc1ccc(C(=O)Nc2ccc3c(c2)C(=O)N(C)C2=NCCN23)cc1 | -2.57 | -3.71 | -3.81 | 0.205 | -2.4 |
| CC(C)CCNC(=O)C1(C)Cn2c(c(-n3cccc3)c3ccccc32)C(=O)N1Cc1ccccn1 (configuration not stated) | 0.369 | 0 | -0.036 | -11.7 | -0.447 |
| COc1ccc2cc3n(c2c1)CC(C)(C(=O)NC1CCCCC1)N(c1ccc2c(c1)OCCO2)C3=O (configuration not stated) | 1.1 | 0 | -3.44 | -0.691 | -4.04 |
| CC1CCCC(NC(=O)C2(C)Cn3c(cc4sccc43)C(=O)N2Cc2ccccc2Cl)C1C (configuration not stated) | -3.49 | 3.29 | 1.54 | 6.07 | -4 |
| O=C(c1ccc2c(c1)OCCO2)N1CCc2[nH]nc(-c3ccccc3F)c2C1 | -21.5 | -6.32 | -9.95 | -19 | 6.39 |
| CC(C)c1ccc(CC(=O)N2CCCc3ncc(C(=O)NCCc4c[nH]c5ccccc45)cc32)cc1 | -11.4 | -9.59 | -7.61 | -18.1 | -5.63 |
| C=C(C(=O)OC)[C@@H]1CC=C2C=CC(=O)[C@H](C)[C@@]2(C)C1 | -6.46 | -9.31 | 1.32 | -17.8 | -5.65 |
| O=c1c2ccccc2n2c(SCc3ccccc3)nnc2n1Cc1ccccc1 | -0.293 | 0 | -0.319 | -6.16 | 0.138 |
| COc1cccc(C2c3cccn3-c3sc4c(c3CN2C(=O)Nc2ccccc2C(F)(F)F)CCCC4)c1 (configuration not stated) | -0.707 | 3.05 | 7.26 | -2.45 | 5.57 |
| CC1(C(=O)NCc2ccc(F)cc2)Cn2cnc(C(=O)NCc3ccc(Cl)cc3)c2C(=O)N1C1CC1 (configuration not stated) | 3.67 | 0 | 6.53 | 4.17 | 4.89 |
| CN1CCc2ccccc2Cc2[nH]c3ccccc3c2CC1 | -20.7 | 7.5 | -11.5 | -7.32 | 5.22 |
| CCOCCCN1C(=O)c2ccc(-c3ccco3)n2CC1(C)C(=O)NC1CCCCC1 (configuration not stated) | -1.91 | -0.392 | 2.16 | -4.13 | -1.04 |
| Cc1ccc(CNC(=O)C2(C)Cn3cnc(C(=O)N4CCCCC4)c3C(=O)N2C2CC2)cc1 (configuration not stated) | -0.556 | 0 | 8.96 | 4.29 | 1.42 |
| CC1(C(=O)NC2CCCCCCC2)Cn2c(ccc2-c2ccco2)C(=O)N1CCN1CCCCCC1 (configuration not stated) | -3.94 | 3.48 | -7.8 | -7.55 | -2.52 |
